Measurements: the supplement of paper PMC10320760
The data scatter; read single values as rough.

B1: Ydj1; a variant is named by its letters at X, in order (parent)
chain: MVKETKFYDILGVPVTATDVEIKKAYRKCALKYHPDKNPSEEAAEKFKEASAAYEILSDPEKRDIYDQFGEDGLSGAGGAGGFPGGGFGFGDDIFSQFFGAGGAQRPRGPQRGKDIKHEISASLEELYKGRTAKLALNKQILCKECEGRGGKKGAVKKCTSCNGQGIKFVTRQMGPMIQRFQTECDVCHGTGDIIDPKDRCKSCNGKKVENERKILEVHVEPGMKDGQRIVFKGEADQAPDVIPGDVVFIVSERPHKSFKRDGDDLVYEAEIDLLTAIAGGEFALEHVSGDWLKVGIVPGEVIAPGMRKVIEGKGMPIPKYGGYGNLIIKFTIKFPENHFTSEENLKKLEEILPPRIVPAIPKKATVDECVLADFDPAKYNRTRASRGGANYDSDEEEQGGEGVQCXXX

Variants of: B1
Experiment: enrichment factor, frequency at 37 °C / frequency at 25 °C (thermotolerance selection) (ratio); higher = more growth at 37 °C, higher likelihood of farnesylation
Details: with Saccharomyces cerevisiae ydj1Δ (yWS304); selective temperature 37 °C; reference temperature 25 °C

| Variant | enrichment factor |
| --- | --- |
| LSA | 1.52 |
| WRV | 1.32 |
| WRG | 1.54 |
| WRH | 1.06 |
| WRW | 1.29 |
| WRS | 1.27 |
| WRQ | 1.62 |
| WRR | 0.113 |
| WRT | 1.45 |
| WRN | 1.32 |
| WRM | 1.24 |
| WRL | 1.55 |
| WRP | 1.47 |
| WRY | 1.52 |
| WRK | 0.129 |
| WRI | 1.25 |
| WRF | 1.36 |
| ISA | 1.55 |
| IRN | 0.152 |
| IRL | 0.187 |
| IRW | 0.164 |
| IRT | 0.106 |
| IRS | 0.115 |
| IRF | 0.345 |

| Variant | enrichment factor |
| --- | --- |
| IRK | 0.188 |
| IRI | 0.236 |
| IRP | 0.124 |
| IRM | 0.194 |
| IRY | 0.13 |
| IRG | 0.133 |
| IRH | 0.172 |
| IRQ | 0.128 |
| IRV | 0.159 |
| IRR | 0.17 |
| ESA | 1.11 |
| NSA | 1.45 |
| QSA | 1.8 |
| DRM | 0.247 |
| DRT | 0.175 |
| DRQ | 0.112 |
| DRW | 0.117 |
| DRH | 0.15 |
| DRN | 0.156 |
| DRL | 0.219 |
| DRS | 0.134 |
| DRG | 0.116 |
| DRP | 0.206 |
| DRV | 0.137 |

| Variant | enrichment factor |
| --- | --- |
| DRR | 0.13 |
| DRY | 0.164 |
| DRK | 0.145 |
| DRI | 0.135 |
| RSA | 1.41 |
| MRY | 0.164 |
| MRG | 0.103 |
| MRI | 0.159 |
| MRQ | 0.228 |
| MRP | 0.12 |
| MRL | 0.249 |
| MRV | 0.194 |
| MRT | 0.16 |
| MRK | 0.195 |
| MRN | 0.0838 |
| MRS | 0.198 |
| MRR | 0.172 |
| MRM | 0.948 |
| MRW | 0.105 |
| MRF | 0.247 |
| MRH | 0.185 |
| CSA | 1.29 |
| GRR | 0.14 |
| GRG | 0.164 |

| Variant | enrichment factor |
| --- | --- |
| GRM | 0.389 |
| GRL | 0.111 |
| GRI | 0.1 |
| GRH | 0.178 |
| GRN | 0.162 |
| GRT | 0.236 |
| GRV | 0.0877 |
| GRW | 0.149 |
| GRS | 0.159 |
| GRP | 0.0975 |
| GRK | 0.0374 |
| GRY | 0.155 |
| GRQ | 0.388 |
| SSA | 1.69 |
| FSA | 1.55 |
| HSA | 2.09 |
| KSA | 1.47 |
| YRT | 0.978 |
| YRS | 0.225 |
| YRF | 0.565 |
| YRH | 0.142 |
| YRN | 0.57 |
| YRQ | 0.706 |
| YRP | 0.252 |

| Variant | enrichment factor |
| --- | --- |
| YRY | 0.167 |
| YRR | 0.095 |
| YRW | 0.261 |
| YRI | 0.32 |
| YRM | 1.18 |
| YRG | 0.367 |
| YRL | 0.373 |
| YRV | 0.959 |
| YRK | 0.144 |
| PRV | 0.0742 |
| PRF | 0.228 |
| PRR | 0.141 |
| PRI | 0.175 |
| PRL | 0.0961 |
| PRQ | 0.164 |
| PRS | 0.145 |
| PRG | 0.23 |
| PRT | 0.15 |
| PRM | 0.116 |
| PRY | 0.143 |
| PRW | 0.108 |
| PRP | 0.138 |
| PRH | 0.116 |
| PRN | 0.17 |

| Variant | enrichment factor |
| --- | --- |
| PRK | 0.145 |
| ERP | 0.0885 |
| ERM | 0.494 |
| ERK | 0.276 |
| ERV | 0.162 |
| ERW | 0.192 |
| ERT | 0.0736 |
| ERH | 0.117 |
| ERL | 0.139 |
| ERQ | 0.716 |
| ERR | 0.159 |
| ERS | 0.188 |
| ERY | 0.105 |
| ERG | 0.205 |
| ERI | 0.214 |
| ERN | 0.0877 |
| WSA | 1.49 |
| DSA | 0.152 |
| ASA | 1.34 |
| GSA | 0.646 |
| YSA | 2.21 |
| RRW | 0.117 |
| RRH | 0.185 |
| RRV | 0.196 |

| Variant | enrichment factor |
| --- | --- |
| RRM | 0.108 |
| RRR | 0.157 |
| RRL | 0.229 |
| RRF | 0.129 |
| RRT | 0.154 |
| RRK | 0.114 |
| RRY | 0.198 |
| RRQ | 0.129 |
| RRI | 0.11 |
| RRS | 0.183 |
| RRG | 0.216 |
| RRP | 0.0623 |
| RRN | 0.146 |
| CRM | 0.326 |
| CRR | 0.171 |
| CRS | 0.134 |
| CRW | 0.183 |
| CRF | 0.359 |
| CRN | 0.167 |
| CRV | 0.486 |
| CRP | 0.172 |
| CRQ | 0.358 |
| CRH | 0.158 |
| CRY | 0.194 |

| Variant | enrichment factor |
| --- | --- |
| CRL | 0.266 |
| CRT | 0.133 |
| CRG | 0.189 |
| CRK | 0.15 |
| CRI | 0.169 |
| QRI | 0.164 |
| QRL | 0.121 |
| QRN | 0.111 |
| QRM | 0.333 |
| QRW | 0.167 |
| QRT | 0.172 |
| QRR | 0.144 |
| QRY | 0.152 |
| QRV | 0.188 |
| QRF | 0.158 |
| QRP | 0.134 |
| QRH | 0.203 |
| QRQ | 0.715 |
| QRS | 0.123 |
| QRG | 0.156 |
| QRK | 0.178 |
| VSA | 2.24 |
| LRK | 0.0854 |
| LRW | 0.149 |

| Variant | enrichment factor |
| --- | --- |
| LRG | 0.187 |
| LRS | 0.138 |
| LRR | 0.178 |
| LRL | 0.253 |
| LRN | 0.142 |
| LRY | 0.101 |
| LRQ | 0.195 |
| LRT | 0.13 |
| LRI | 0.169 |
| LRF | 0.2 |
| LRM | 0.242 |
| LRV | 0.137 |
| LRP | 0.18 |
| LRH | 0.214 |
| SRT | 0.214 |
| SRH | 0.123 |
| SRI | 0.148 |
| SRQ | 0.149 |
| SRS | 0.152 |
| SRM | 0.281 |
| SRP | 0.185 |
| SRW | 0.129 |
| SRN | 0.179 |
| SRV | 0.133 |

| Variant | enrichment factor |
| --- | --- |
| SRK | 0.107 |
| SRY | 0.216 |
| SRL | 0.175 |
| SRR | 0.146 |
| SRF | 0.21 |
| SRG | 0.333 |
| ARP | 0.126 |
| ARL | 0.29 |
| ARK | 0.138 |
| ARQ | 0.458 |
| ARR | 0.113 |
| ART | 0.212 |
| ARI | 0.142 |
| ARG | 0.167 |
| ARN | 0.239 |
| ARY | 0.272 |
| ARM | 0.904 |
| ARS | 0.142 |
| ARV | 0.238 |
| ARH | 0.115 |
| ARW | 0.25 |
| PSA | 1.82 |
| MSA | 1.58 |
| VRN | 0.149 |

| Variant | enrichment factor |
| --- | --- |
| VRM | 0.175 |
| VRK | 0.094 |
| VRY | 0.17 |
| VRV | 0.154 |
| VRP | 0.0956 |
| VRH | 0.174 |
| VRI | 0.14 |
| VRF | 0.583 |
| VRS | 0.155 |
| VRT | 0.168 |
| VRQ | 0.251 |
| VRG | 0.129 |
| VRL | 0.199 |
| VRW | 0.0919 |
| VRR | 0.158 |
| TSA | 1.63 |
| KRY | 0.0738 |
| KRH | 0.22 |
| KRK | 0.211 |
| KRP | 0.142 |
| KRS | 0.0863 |
| KRG | 0.187 |
| KRI | 0.132 |
| KRL | 0.147 |

| Variant | enrichment factor |
| --- | --- |
| KRR | 0.186 |
| KRT | 0.209 |
| KRQ | 0.104 |
| KRF | 0.161 |
| KRN | 0.0847 |
| KRM | 0.141 |
| KRW | 0.18 |
| KRV | 0.159 |
| HRV | 0.731 |
| HRY | 0.12 |
| HRH | 0.0971 |
| HRW | 0.0969 |
| HRQ | 1.12 |
| HRG | 0.239 |
| HRK | 0.0906 |
| HRT | 0.661 |
| HRN | 0.275 |
| HRS | 0.1 |
| HRM | 0.987 |
| HRI | 0.291 |
| HRP | 0.206 |
| HRL | 0.18 |
| HRR | 0.0819 |
| TRN | 0.186 |

| Variant | enrichment factor |
| --- | --- |
| TRR | 0.174 |
| TRP | 0.127 |
| TRI | 0.153 |
| TRS | 0.188 |
| TRH | 0.133 |
| TRQ | 0.13 |
| TRF | 0.0924 |
| TRW | 0.114 |
| TRY | 0.139 |
| TRG | 0.116 |
| TRM | 0.105 |
| TRT | 0.0989 |
| TRK | 0.102 |
| TRL | 0.164 |
| TRV | 0.167 |
| NRK | 0.247 |
| NRI | 0.152 |
| NRS | 0.27 |
| NRM | 0.135 |
| NRT | 0.23 |
| NRF | 0.184 |
| NRL | 0.224 |
| NRR | 0.104 |
| NRW | 0.134 |

| Variant | enrichment factor |
| --- | --- |
| NRN | 0.17 |
| NRH | 0.181 |
| NRG | 0.126 |
| NRP | 0.0742 |
| NRV | 0.157 |
| NRQ | 0.173 |
| NRY | 0.17 |
| FRI | 1.09 |
| FRV | 1.55 |
| FRR | 0.0914 |
| FRK | 0.2 |
| FRM | 1.54 |
| FRQ | 1.94 |
| FRW | 0.328 |
| FRP | 1.29 |
| FRN | 1.32 |
| FRT | 1.29 |
| FRS | 1.25 |
| FRY | 0.513 |
| FRG | 1.2 |
| FRH | 0.442 |
| FRL | 0.832 |
